Assay [1] concerns HSkMC (human skeletal muscle cells). Put plainly: cytotoxicity call (relative viability < 0.9). The note with it: 10 µM.
Assay [2] has as its system HepG2. Put plainly: cytotoxicity call (relative viability < 0.9). Conditions: 10 µM.
Assay [3] relates to S. aureus RN4220. Put plainly: growth inhibition call (relative growth <= 0.2). Conditions: 50 µM.

The other results are listed elsewhere or left out.

`O=c1[nH]ncn1-c1ccccc1`: the cytotoxicity call in assay [1] and in assay [2] was “inactive” throughout. In addition, the growth inhibition call in assay [3] is “inactive”.

Take `Cc1noc(C)c1S(=O)(=O)Nc1ccc2c(c1)CC(=O)N([C@H](C)CO)C[C@@H](C)[C@@H](CN(C)Cc1ccc(-c3ccccc3)cc1)O2`: the cytotoxicity call in assay [1] and in assay [2] was “inactive” each time. In addition, the growth inhibition call in assay [3] is “inactive”.

In the case of `C[C@H]1CN([C@@H](C)CO)S(=O)(=O)c2ccc(C#CCN(C)C)cc2O[C@@H]1CN(C)Cc1cccnc1`, the cytotoxicity call in assay [1] and in assay [2] was “inactive” throughout. Further, the growth inhibition call in assay [3] was “inactive”.

For `Cc1noc(C)c1S(=O)(=O)Nc1ccc2c(c1)CC(=O)N([C@@H](C)CO)C[C@@H](C)[C@H](CN(C)S(=O)(=O)c1ccccc1)O2`, the cytotoxicity call in assay [1] and in assay [2] was “inactive” each time. Also, in assay [3], the growth inhibition call was “inactive”.

For the molecule `C[C@H](CO)N1C[C@H](C)[C@H](CN(C)S(=O)(=O)c2ccc(Cl)cc2)Oc2ccc(NC(=O)c3ccncc3)cc2CC1=O`, the cytotoxicity call in assay [1] and in assay [2] was “inactive” each time. Moreover, the growth inhibition call in assay [3] is “inactive”.

As for `Cc1ccccc1-c1ccc2c(c1)O[C@H](CN(C)C(=O)Nc1ccc(C(F)(F)F)cc1)[C@@H](C)CN([C@H](C)CO)S2(=O)=O`, the cytotoxicity call in assay [1] and in assay [2] was “inactive” throughout. For the same molecule, the growth inhibition call in assay [3] was “inactive”.

Turning to `C[C@@H]1CCCCO[C@H](CN(C)S(C)(=O)=O)[C@H](C)CN([C@H](C)CO)C(=O)c2cc(N(C)C)ccc2O1`, the cytotoxicity call in assay [1] and in assay [2] was “inactive” in each case. Further, in assay [3], the growth inhibition call was “inactive”.

Consider `CC(C)NC(=O)Nc1cccc2c1O[C@@H](CN(C)S(=O)(=O)c1cn(C)cn1)[C@@H](C)CN([C@H](C)CO)C2=O`, for which the cytotoxicity call in assay [1] and in assay [2] was “inactive” in each case. Besides, in assay [3], the growth inhibition call is “inactive”.

For `NC(=O)Cc1ccc(O)cc1`, the cytotoxicity call in assay [1] and in assay [2] was “inactive” throughout. The growth inhibition call in assay [3] was “inactive”.

As for `C[C@@H]1CCCCO[C@@H](CN(C)C(=O)C2CCCCC2)[C@H](C)CN([C@H](C)CO)C(=O)c2cc(NC(=O)Nc3ccc(C(F)(F)F)cc3)ccc2O1`, the cytotoxicity call in assay [1] and in assay [2] was “inactive” throughout. In addition, the growth inhibition call in assay [3] was “inactive”.

Take `CCOC(=O)COc1ccc(-c2nn[nH]n2)cc1`: the cytotoxicity call in assay [1] and in assay [2] was “inactive” throughout. In addition, the growth inhibition call in assay [3] is “inactive”.

In the case of `C[C@H](CO)N1C[C@H](C)[C@H](CN(C)C(=O)c2ccncc2)Oc2cc(C#CC3(O)CCCC3)ccc2S1(=O)=O`, the cytotoxicity call in assay [1] and in assay [2] was “inactive” throughout. For the same molecule, the growth inhibition call in assay [3] was “inactive”.

For the molecule `Cc1ccc(S(=O)(=O)N(C)C[C@@H]2Oc3ccc(NS(=O)(=O)c4ccccc4)cc3C(=O)N([C@@H](C)CO)C[C@H]2C)cc1`, the cytotoxicity call in assay [1] and in assay [2] was “inactive” throughout. The growth inhibition call in assay [3] is “inactive”.

For `COc1ccc(NC(=O)Nc2ccc3c(c2)C(=O)N([C@@H](C)CO)C[C@H](C)[C@H](CN(C)Cc2ccc(Cl)c(Cl)c2)O3)cc1`, the cytotoxicity call in assay [1] and in assay [2] was “active” each time. The growth inhibition call in assay [3] is “inactive”.

For `C[C@@H]1CN([C@@H](C)CO)C(=O)Cc2cc(NS(=O)(=O)c3cccs3)ccc2O[C@@H]1CN(C)Cc1ccc(-c2ccccc2)cc1`, the cytotoxicity call in assay [1] and in assay [2] was “inactive” each time. Also, the growth inhibition call in assay [3] is “inactive”.

For the molecule `CCCC#Cc1cnc2c(c1)C(=O)N([C@H](C)CO)C[C@H](C)[C@@H](CN(C)C(=O)c1ccc3c(c1)OCO3)O2`, the cytotoxicity call in assay [1] and in assay [2] was “inactive” each time. In addition, in assay [3], the growth inhibition call was “inactive”.

Consider `C[C@@H]1CN([C@@H](C)CO)C(=O)c2cc(NC(=O)c3ccncc3)ccc2O[C@@H](C)CCCCO[C@H]1CN(C)Cc1ccccc1`, for which the cytotoxicity call in assay [1] and in assay [2] was “inactive” throughout. Moreover, in assay [3], the growth inhibition call is “inactive”.

As for `C[C@@H]1CN([C@@H](C)CO)C(=O)c2c(c3ccccc3n2C)-c2ccccc2CO[C@H]1CN(C)Cc1cccc(O)c1`, the cytotoxicity call in assay [1] and in assay [2] was “inactive” throughout. Besides, in assay [3], the growth inhibition call is “inactive”.

Consider `Cc1noc(C)c1S(=O)(=O)Nc1ccc2c(c1)C(=O)N([C@@H](C)CO)C[C@H](C)[C@H](CN(C)C(=O)Nc1ccc(F)cc1)OCCCC[C@H](C)O2`, for which the cytotoxicity call in assay [1] and in assay [2] was “inactive” each time. The growth inhibition call in assay [3] is “inactive”.

Regarding `O=C1NC(=O)[C@H](Cc2ccccc2)N1`, the cytotoxicity call in assay [1] and in assay [2] was “inactive” each time. Moreover, the growth inhibition call in assay [3] is “inactive”.

For `COc1cccc(C(=O)Nc2ccc3c(c2)C(=O)N(C)[C@@H]2CC[C@@H](CC(=O)NCC(F)(F)F)O[C@@H]2CO3)c1`, the cytotoxicity call in assay [1] and in assay [2] was “inactive” in each case. In addition, the growth inhibition call in assay [3] is “inactive”.

As for `CCS(=O)(=O)Nc1ccc2c(c1)C(=O)N(C)C[C@@H](OC)[C@@H](C)CN(Cc1nccs1)[C@@H](C)CO2`, the cytotoxicity call in assay [1] and in assay [2] was “inactive” each time. Also, the growth inhibition call in assay [3] was “inactive”.

As to `Cc1ccc(S(=O)(=O)Nc2ccc3c(c2)C(=O)N([C@@H](C)CO)C[C@H](C)[C@@H](CN(C)S(C)(=O)=O)OCCCC[C@@H](C)O3)cc1`, the cytotoxicity call in assay [1] and in assay [2] was “inactive” in each case. Moreover, the growth inhibition call in assay [3] is “inactive”.

In the case of `CC(N)C(O)c1cccc(O)c1.O=C(O)C(O)C(O)C(=O)O` (stereo not drawn), the cytotoxicity call in assay [1] and in assay [2] was “inactive” throughout. Moreover, the growth inhibition call in assay [3] was “inactive”.

Take `COc1ccc(NC(=O)Nc2ccc3c(c2)C(=O)N([C@H](C)CO)C[C@H](C)[C@H](CN(C)C(=O)NC(C)C)OCCCC[C@H](C)O3)cc1`: the cytotoxicity call in assay [1] and in assay [2] was “inactive” in each case. For the same molecule, the growth inhibition call in assay [3] is “inactive”.

On to `COc1ccc(NC(=O)N(C)C[C@@H]2Oc3ccc(NC(=O)Cn4cnnn4)cc3C(=O)N([C@H](C)CO)C[C@@H]2C)cc1`, for which the cytotoxicity call in assay [1] and in assay [2] was “inactive” in each case. In addition, in assay [3], the growth inhibition call is “inactive”.

These data come from the antibiotic and cytotoxicity screens of Wong et al. (2023).
